# Test results taken from the supplement of paper PMC3334620.
# The full ranking holds about 33,000 sequences; the median of “E-score (-0.5 to 0.5)” is about -0.012, and the highest 2% start at about 0.27. The list shows a part of the results.
# Molecular target: T1, Vhr1 (UniProt P40522)
# T1 sequence: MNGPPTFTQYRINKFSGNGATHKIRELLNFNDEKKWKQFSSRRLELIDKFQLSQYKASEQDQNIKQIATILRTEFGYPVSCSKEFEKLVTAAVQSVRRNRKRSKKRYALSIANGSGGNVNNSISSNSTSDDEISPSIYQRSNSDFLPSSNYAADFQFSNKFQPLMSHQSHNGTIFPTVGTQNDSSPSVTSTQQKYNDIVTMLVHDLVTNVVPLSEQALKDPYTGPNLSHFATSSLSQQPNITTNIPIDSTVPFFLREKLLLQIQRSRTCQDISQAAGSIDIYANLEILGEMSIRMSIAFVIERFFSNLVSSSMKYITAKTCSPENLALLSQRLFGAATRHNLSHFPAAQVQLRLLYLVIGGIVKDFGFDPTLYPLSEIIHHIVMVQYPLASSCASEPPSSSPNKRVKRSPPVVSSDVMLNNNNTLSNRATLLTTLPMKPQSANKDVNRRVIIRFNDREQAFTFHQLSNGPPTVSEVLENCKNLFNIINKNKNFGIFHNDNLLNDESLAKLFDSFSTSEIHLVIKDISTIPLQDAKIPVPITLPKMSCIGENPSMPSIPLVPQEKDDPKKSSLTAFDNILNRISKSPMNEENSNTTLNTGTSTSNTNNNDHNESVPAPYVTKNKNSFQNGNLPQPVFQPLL
# Experiment: PBM E-score (8-mer binding enrichment) (E-score (-0.5 to 0.5)); higher = stronger / more preferred TF binding; most listed sequences are background and not binding sites
# Conditions: protein concentration: 200 nM; construct: GST-full length
# How it was run: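 Universal all-10-mer Agilent arrays, fresh or stripped once, were converted to double-stranded form by primer extension. GST-tagged yeast transcription factors from PURExpress in vitro transcription/translation, full-length or DNA-binding domain only, were applied at about 100-200 nM and detected with fluorescent anti-GST. After masliner normalisation, the Universal PBM Analysis Suite scored each ungapped eight-base word together with its reverse complement by E-score.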
row,Sequence,PBM E-score
1,GAGATAAC,-0.14
2,GTAAGTAA,-0.116
3,CGAGTAGC,-0.0947
4,ATACAGAC,0.0587
5,ATAGAGAC,-0.0572
6,AAGTGGAC,-0.184
7,ATAGTGAG,0.0754
8,CACATGCA,0.196
9,CCCTGTCG,0.114
10,AGCCTAAA,-0.175
11,ATCAGGTA,0.193
12,GTAATCTA,0.116
13,CACCATGG,0.041
14,ACGCGCTC,0.163
15,ATCTACAA,-0.151
16,ACATGCGC,0.0977
17,AAGGGGAC,-0.308
18,TGCTATAA,-0.132
19,AATAAATT,-0.045
20,ACGGCTAC,0.0956
21,CCGGACCC,-0.0136
22,CAGTTAAG,0.00776
23,AAGGACGC,-0.0576
24,ATGAAAAA,-0.208
25,AGTTTCAG,-0.0517

row,Sequence,PBM E-score
1,ACCGGTCT,-0.208
2,AAGTGGGT,0.216
3,AAGCGCGT,-0.16
4,AAGAGTAG,0.00361
5,ACATTCGC,-0.0629
6,ACCAACGT,0.0483
7,CGTGAAGC,-0.219
8,TGAGGAAA,-0.294
9,GTAGGCTA,-0.132
10,ATACAACA,0.162
11,ACAAACGG,-0.0173
12,AGAGCTCC,-0.305
13,ACTCACTA,0.254
14,ATCGGCAG,0.0387
15,GACAACGA,-0.0359
16,ATCAATAC,0.0721
17,GAGATGCC,-0.17
18,CCCTTATC,-0.262
19,TAGGTCGA,-0.0177
20,CTGTGAAC,-0.24
21,CTTTAGCC,-0.174
22,GGCCCCTA,-0.184
23,CATCGTGA,0.0835
24,ATAGTGGA,-0.00616
25,CGTTCGTC,0.11

row,Sequence,PBM E-score
1,ATAATTAT,0.243
2,CCTCTACC,-0.0498
3,ACCTTTCT,-0.158
4,ATAAATGC,-0.0513
5,CTTGTGCC,-0.0908
6,GTGAATAA,0.16
7,ATGCTTTG,0.0636
8,AGGACCCT,-0.213
9,CGTAAAAA,-0.196
10,AGACACAA,0.0182
11,CTCACGGA,-0.00831
12,ATTGGGAC,0.0612
13,ACACTGCC,0.281
14,ACAGAGGG,-0.082
15,ATTGTATC,0.153
16,ATCAACCG,-0.0989
17,CCCCAGGC,-0.281
18,AATGGCCG,-0.11
19,ATATCGTG,0.104
20,AAGGAACA,-0.273
21,GAAGTGCC,-0.144
22,CGCACATC,0.0832
23,CTCTCGTC,-0.206
24,TATGCATA,-0.0323
25,CTCAGAGA,0.136

row,Sequence,PBM E-score
1,TGGTTAAA,0.0297
2,ACTTTCCA,-0.112
3,CATTTAGA,-0.0525
4,GGGATTAC,0.0189
5,GTCATCCA,0.18
6,ATTCGGCC,0.0234
7,AACTCAGC,-0.023
8,CGTAGGGA,-0.0954
9,CAATGAAA,0.0458
10,AGTAACCG,0.0709
11,CGTTGGAA,-0.0304
12,AACATTGC,0.00756
13,CCTCCCCA,0.28
14,AGCAAGGG,-0.0155
15,GAGCCGGA,0.0618
16,AAAGAACG,-0.0649
17,CTTTGTAA,-0.0464
18,AACGTACC,-0.0411
19,ACCATTCC,0.0303
20,ACGGACAG,-0.104
21,GATACCAC,0.185
22,ACGAGCTC,0.0556
23,TGTCTGAA,0.0836
24,ACGCGAGT,0.127
25,CATAGCAG,-0.0705

row,Sequence,PBM E-score
1,GGTCGACA,-0.0223
2,AGATATAG,0.0312
3,AGGTCTAG,-0.194
4,AAGCAAAC,-0.0625
5,AAGCTTCT,-0.302
6,AGTTTTCA,-0.175
7,AGGATGGG,0.206
8,ATAGTGTA,0.207
9,GGGATACC,-0.121
10,CACAAGAA,0.0603
11,ATCCAACA,-0.0262
12,CCTGTATC,0.124
13,GCCGAGTA,-0.0358
14,ATGTTGCG,0.0546
15,CATACTAG,0.238
16,AGATCAAC,0.00042
17,AGGTACCA,-0.12
18,ATCTAAGC,-0.318
19,ACGAGGCC,-0.168
20,AACGGGGG,-0.0988
21,ATGGTGTG,0.176
22,ACTTCCAC,-0.0245
23,GCTTTCAC,-0.269
24,AAGGGAAA,-0.224
25,CCGAAGCG,-0.132

row,Sequence,PBM E-score
1,AGAGTATC,-0.0198
2,GGCTTACA,0.0388
3,TACGTATA,0.158
4,AAGGGACA,-0.13
5,GGATGGCA,0.205
6,GGGGCGAA,0.00309
7,AACACAAC,0.154
8,AAAGCAAT,-0.0617
9,TGTCCTAA,-0.211
10,AAATACCA,0.205
11,GAAGCTAC,-0.121
12,CCCACACG,0.026
13,AGGTTTTG,-0.0684
14,CACCCCCG,0.113
15,ACCGGTGA,-0.0516
16,GCCCTCCA,-0.133
17,ATCTACCC,0.185
18,CCATTACG,-0.0059
19,ACAACTCT,-0.0194
20,ACAACTGA,0.162
21,ACTGTGCG,0.103
22,ATTGTGTG,0.0834
23,ACCTCCGA,-0.187
24,CTAGCTGA,0.0125
25,AGTTATCC,0.124

row,Sequence,PBM E-score
1,TGCGGGAA,0.00598
2,GCTCAACC,0.0526
3,GAAATTGA,-0.0293
4,AGTAAGAA,-0.0307
5,AAGAGAAA,-0.182
6,ACGTGTCC,-0.0792
7,CCAAACAC,0.0748
8,GCGTGGGA,-0.0839
9,AACCGCTG,-0.0526
10,AATACCAG,0.149
11,GCATTCTA,-0.0169
12,CGAAAGGA,0.0605
13,AAAGCACG,-0.125
14,CACCCCCA,-0.104
15,AAGACCTG,-0.276
16,AAAGCGAG,-0.134
17,GGTGCAAA,-0.22
18,ATACCAGA,0.0394
19,ACCAGACG,0.0284
20,GGGCCGGA,-0.015
21,ACGTACGA,-0.277
22,ATGGCGAG,0.103
